# Several values for one entry are separate records, joined by “and”; a condition that tells them apart may be missing. Identical values can stand only once. About 1,200 (2.5%) of roughly 48,000 compounds were called active. Roughly 2% stayed inconclusive and do not appear here.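 How the source made its calls: active means activation of at least 60% and not above a set upper limit (about 1 call in 100 departs from these limits); inconclusive means activation of 40% to 60%, or above that upper limit; inactive means activation under 40%.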 The list shows a part of the results.
# Biological target: Probable G-protein coupled receptor 32 (Homo sapiens) (UniProt O75388)
# UniProt O75388, sequence (O75388 whole entry, looked up): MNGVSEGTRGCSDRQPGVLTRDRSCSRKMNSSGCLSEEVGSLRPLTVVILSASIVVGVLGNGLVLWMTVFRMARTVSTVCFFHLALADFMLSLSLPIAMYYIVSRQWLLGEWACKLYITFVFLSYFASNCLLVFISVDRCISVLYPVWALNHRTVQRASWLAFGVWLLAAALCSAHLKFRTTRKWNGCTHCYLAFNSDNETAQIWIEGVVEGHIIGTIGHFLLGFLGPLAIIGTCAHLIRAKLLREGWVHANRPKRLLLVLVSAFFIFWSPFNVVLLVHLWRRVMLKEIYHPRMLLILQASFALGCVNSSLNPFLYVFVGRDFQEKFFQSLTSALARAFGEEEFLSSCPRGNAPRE
# Experiment: qHTS for Agonists of Human Resolvin D1 Receptor DRV1; further: 0% is about no effect
# Conditions: CHO-K1 GPR32 beta-arrestin PathHunter luminescence, 90 min; at 76.9 µM; active compounds read high; zero percent set by DMSO-only wells
# In short: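 Readings come from a cell-based beta-arrestin complementation format: CHO-K1 GPR32 stable cells (2,500/well) treated 90 min with compounds, then beta-Gal substrate added for 1 h before chemiluminescence imaging.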
row,Structure (SMILES),activation
1,CCOc1ccc(Sc2cc(C(=O)NCCCOC)c3ccccc3n2)cc1,inactive: -4.36%
2,C#CCOc1ccc(C2C(C(=O)OC)=C(C)NC3=C2C(=O)c2ccccc23)cc1OCC (stereo not drawn),inactive: -40.9%
3,COc1ccc(N2CC(NC(=O)c3cccs3)CC2=O)cc1OC (stereo not drawn),inactive: 0.998%
4,O=S(=O)(NCCc1csc(-c2ccc(F)cc2)n1)c1ccc(F)cc1F,inactive: -3.31%
5,O=C(Nc1ccc(F)cc1)c1ccc(-n2cnnc2)cc1,inactive: 15.1%
6,CCc1ccc(-c2[nH]c3c(c2-c2c(-n4cccc4)n(C)c(=O)[nH]c2=O)c(=O)[nH]c(=O)n3C)cc1,inactive: -1.28%
7,O=C1NC(=O)C(c2ccccc2[N+](=O)[O-])=C1Nc1ccc(O)c(Cl)c1,inactive: -9.28%
8,CC(=O)Nc1ccc(NS(=O)(=O)c2ccc3c(c2)CCCN3C(C)=O)cc1,inactive: -1.34%
9,O=C(Nc1nnc(S(=O)(=O)N2CCCCC2)s1)c1ccc(Cl)cc1,inactive: 20.1%
10,COc1ccc(-n2ncc(C(=O)Nc3ccc(C)cc3Cl)c2C2CCN(C(=O)OC(C)(C)C)CC2)cc1,inactive: -26.6%
11,CCn1cc(C(=O)NCCCN(CC(C)C)CC(C)C)c(=O)c2cc(S(=O)(=O)N3CCc4ccccc4C3)ccc21,inactive: -0.578%
12,Cc1ccc(-c2nnc(SCC(=O)NCCC(C)C)nc2-c2ccc(C)cc2)cc1,inactive: -32.3%
13,COc1cccc(C2=NS(=O)(=O)N(C)C(C(=O)Nc3cccc(O)c3)=C2)c1,inactive: -16.3%
14,Cc1cc(OCC(=O)NCC2(N(C)C)CCCCC2)cc(C)c1Cl,inactive: -0.795%
15,CCN1CCN(C(c2cccc(Cl)c2)c2c(O)cc(C)n(CCOC)c2=O)CC1 (stereo not drawn),inactive: -13.1%
16,Cc1ccc(CCNC(=O)CN2C(=O)COc3ccc(S(=O)(=O)N4CCC(C)CC4)cc32)cc1,inactive: -31.5%
17,COc1ccc(CC(=O)Nc2ccc(-c3nc4ccccc4s3)cc2Cl)cc1,inactive: 0.347%
18,Cc1cc(NC(=O)C2CCCN(S(=O)(=O)c3ccc(Br)s3)C2)ccc1Br (stereo not drawn),inactive: -13.9%
19,COc1ccc(N2CCN(C(CNC(=O)C(=O)NCc3ccc(F)cc3)c3cccnc3)CC2)cc1 (stereo not drawn),inactive: -9.58%
20,CCc1ccc(NC(=O)N(Cc2c[nH]c3ccccc23)C2CCCCCC2)cc1,inactive: -28.1%
21,O=C(NCc1ccccc1)C(=O)NCC(c1ccco1)S(=O)(=O)c1ccccc1 (stereo not drawn),inactive: -1.49%

row,Structure (SMILES),activation
1,Cc1cc2nn(-c3ccc(F)cc3)nc2cc1NC(=O)c1cc(Cl)ccc1Cl,inactive: 7.85%
2,CCCCN1C(=O)C(O)(c2c(C)[nH]c3ccccc23)c2cc(Br)ccc21 (stereo not drawn),inactive: -26%
3,CCCN(CCC)c1nn2c(=O)c(C(=O)NCc3cccc(OC)c3)cnc2s1,inactive: -16.5%
4,N#C/C(=C\c1ccc(O)c(O)c1)C(=O)Nc1ccccc1,inactive: -26.7%
5,COc1ccc(Cl)cc1NC(=O)CSc1nnc(C)n2c1cc1occc12,inactive: -9.62%
6,CN1CCN(C(=O)c2cnn(-c3cccc(F)c3)c2C2CCN(C(=O)OC(C)(C)C)CC2)CC1,inactive: -11.6%
7,Cc1ccc(C)c(CSc2c(C(C)C)cnc3c2c(=O)n(C)c(=O)n3C)c1,inactive: -20.6%
8,COc1ccc(N2CCN(C(CNC(=O)c3ccc(C)cc3)c3ccc4c(c3)OCO4)CC2)cc1 (stereo not drawn),inactive: -30.4%
9,CCOc1ccc(/C=C/c2nc(C#N)c(N(C)C)o2)cc1,inactive: -6.26%
10,Cc1ccc(NC(=O)Cn2cc(S(=O)(=O)N3CCN(c4ccccc4F)CC3)c3ccccc3c2=O)cc1F,inactive: 7.5%
11,Cc1csc2nc(COc3ccc(NC(=O)COc4ccc(F)cc4)cc3)cc(=O)n12,inactive: 18.4%
12,CC(C)c1ccc(CNc2nc(-c3ccco3)nn2S(=O)(=O)c2ccccc2)cc1,inactive: -29.6%
13,CCOc1ccccc1CNC(=O)c1nn(C)c2c1CS(=O)(=O)c1ccccc1-2,inactive: -15.3%
14,Cc1cc2c(cc1NC(=O)c1ccc(C(C)(C)C)cc1)n(C)c(=O)c(=O)n2C,inactive: 33.4%
15,COc1ccc(NC(=O)c2sc3nc[nH]c(=O)c3c2C)cc1,inactive: -14.1%
16,Cc1ccc(-c2cc(C(=O)Oc3ccccc3)c3cccc(C)c3n2)cc1,inactive: -15.2%
17,COC(=O)c1cc(S(=O)(=O)N2CCN(c3ccc(C)cc3C)CC2)cn1C,inactive: -6.94%
18,Cc1sc(-c2cc3ccccc3oc2=O)nc1-c1ccc(Cl)cc1,inactive: 20.4%
19,O=C(CN1C(=O)COc2ccc(S(=O)(=O)N3CCCC3)cc21)N1CCN(c2ccccc2F)CC1,inactive: -2.26%
20,Cc1ccccc1-c1nc(CS(=O)CC(=O)NCCc2ccc(Cl)cc2)c(C)o1 (stereo not drawn),inactive: -11.9%
21,CC(C)Oc1ccc(CNC(=O)C2COc3ccccc3C2)cc1 (stereo not drawn),inactive: -8.58%

row,Structure (SMILES),activation
1,O=C1CC(c2ccccc2)Cc2[nH]c(=O)c(-c3nc(-c4ccc(F)cc4)cs3)cc21 (stereo not drawn),inactive: -77.4%
2,COC(=O)c1ccccc1NC(=O)Nc1cccc(OCc2cc(=O)n3cccc(C)c3n2)c1,inactive: -7.5%
3,CCCCCCOc1ccc(-c2nc3ccc(Br)cc3c(=O)o2)cc1,inactive: -0.102%
4,COc1ccc(-c2noc(-c3ccc(N4CCCCC4)c([N+](=O)[O-])c3)n2)cc1,inactive: 5.49%
5,CCOC(=O)c1cnc2ccc(OCC)cc2c1N1CCN(c2cccc(Cl)c2)CC1,inactive: -1.9%
6,CCOc1ccc(C2c3c(oc4ccc(C)cc4c3=O)C(=O)N2c2nc(C)c(C)s2)cc1OC (stereo not drawn),inactive: -3.62%
7,O=C1CN(C(=O)C2CCCCC2)C(c2ccccc2)c2cc(F)ccc2N1 (stereo not drawn),inactive: -5.34%
8,COc1cc(Cl)c(NS(=O)(=O)c2ccc3[nH]c(=O)ccc3c2)c(OC)c1,inactive: 0.933%
9,CCC1CCCCN1C(=O)Cn1c(=O)n(-c2ccccc2C(F)(F)F)c(=O)c2c(C)c(C(=O)N(C)C)sc21 (stereo not drawn),inactive: -4.54%
10,CCCCC(=O)NC1(C(F)(F)F)C(=O)Nc2c1c(=O)[nH]c(=O)n2-c1ccc(F)cc1 (stereo not drawn),inactive: -2.29%
11,Cc1ccc(C)c(NC(=O)C2CCCN(S(=O)(=O)c3cccc4nsnc34)C2)c1 (stereo not drawn),inactive: 15.8%
12,CCOc1ccc(NC(=O)C(CC)n2nc(-c3ccc(C)c(C)c3)ccc2=O)cc1 (stereo not drawn),inactive: 0.369%
13,CCOc1ccc(OCC)c(NC(=O)CN(c2ccc(C)cc2)S(=O)(=O)c2c(C)n[nH]c2C)c1,inactive: 38.8%
14,Cc1ccc(NC(=O)Cn2c(=O)n(Cc3nc(-c4ccccc4)no3)c(=O)c3cc4c(cc32)OCO4)cc1C,inactive: -3.13%
15,COc1ccccc1N1CCN(C(c2ccccc2)c2nnc(-c3ccccc3Cl)o2)CC1 (stereo not drawn),inactive: -40.6%
16,CCCNC(=O)c1cc2n(n1)CCCN(Cc1ccc(F)cc1)C2=O,inactive: 7.27%
17,O=C(c1ccc2c(c1)N(Cc1ccccc1F)C(=O)c1ccccc1S2(=O)=O)N1CCCCCC1,inactive: -28.1%
18,CC(C)=CCOc1ccc(/C=C/C(=O)c2ccc(OCC=C(C)C)cc2OCC(=O)O)cc1,inactive: 30.3%
19,C[C@@H]1CN(CCCn2c3ccccc3c3ccccc32)C[C@H](C)N1,inactive: 32.6%
20,COc1cccc(C(=O)c2sc(Nc3ccc(C)cc3C)c(S(=O)(=O)c3ccccc3)c2N)c1,inactive: -23.9%
21,CCOc1ccc(CCNC(=O)c2ccc(Cn3c(=O)c4cccn4c4cccnc43)cc2)cc1,inactive: -18%

row,Structure (SMILES),activation
1,COc1ccc(-c2csc3ncnc(Nc4ccc(OC)c(OC)c4)c23)cc1,inactive: 41.1%
2,Cc1cc(N2CCCCC2)nc2ccc(NC(=O)CCC(=O)N3CCN(c4cccc(Cl)c4)CC3)cc12,inactive: -9.97%
3,CCN(C(=O)Cn1c(SCc2ccccc2F)nc2cccnc21)c1ccccc1,inactive: -16.9%
4,CCOC(=O)c1sc(N2C(=O)c3oc4ccc(F)cc4c(=O)c3C2c2cccc(OC)c2)nc1C (stereo not drawn),inactive: -4.24%
5,O=C(C1COc2ccccc2O1)N(Cc1cccnc1)c1nc2ccc(F)cc2s1 (stereo not drawn),inactive: -8.93%
6,O=C(OCc1ccccc1)c1ccc(-c2nnn(Cc3ccccc3F)n2)cc1,inactive: -0.987%
7,O=C(CSCc1nc2cccnc2n1C1CCCCC1)NCc1cccc(Br)c1,inactive: -22.4%
8,CCOc1ccc(CCNC(=O)c2ccc3[nH]c(C)c(C)c3c2)cc1,active: 72.4%
9,Cc1ccc2scc(N3CCN(c4ccccc4)CC3)c(=O)c2c1,inactive: -49.5%
10,COc1ccc(CCNC(=O)c2cc3c(=O)n(C)c4cc(Cl)ccc4c3s2)cc1OC,inactive: -9.66%
11,COc1ccc(-c2[nH]c(-c3ccccc3)nc2SCC(=O)NC2CCCC2)cc1,inactive: -24.6%
12,CCC1CN(C(=O)NCc2cccc(OC)c2)c2ccccc2O1 (stereo not drawn),inactive: -24.4%
13,COc1cccc(NC(=O)C(=O)NCCc2sc(-c3cccc(C)c3)nc2C)c1,inactive: 36.1%
14,O=S1(=O)c2ccccc2N(Cc2ccccc2Cl)c2ccccc21,inactive: -7.9%
15,CCN1C(=O)c2ccccc2Sc2ccc(NC(=O)Nc3ccc(Br)c(C)c3)cc21,inactive: 9.29%
16,COc1ccc(-c2cc(NCc3ccc(C)cc3)n3cnnc3n2)cc1,inactive: 6.98%
17,Cc1ccc(-c2ccc(=O)n(CC(=O)NC(C)c3ccccc3)n2)cc1 (stereo not drawn),inactive: 7.11%
18,CC(C(=O)O)c1cccc(Oc2ccccc2)c1 (stereo not drawn),inactive: -8.06%
19,Cc1ccccc1NC(=O)Cn1c(=O)n(CCCCC(=O)NCc2ccccc2Cl)c(=O)c2ccccc21,inactive: -0.747%
20,Oc1ccc(C2CNCCc3c2cc(O)c(O)c3Cl)cc1 (stereo not drawn),inactive: 6.45% and inactive: 3.84%
